# According to the supplement of paper PMC3334620:
# Over roughly 33,000 sequences, “E-score (-0.5 to 0.5)” has its median near -0.013; the highest 2% begin near 0.3. The list shows a part of the results.
# Molecular target: T1, Msn1 (UniProt P22148)
# T1 sequence: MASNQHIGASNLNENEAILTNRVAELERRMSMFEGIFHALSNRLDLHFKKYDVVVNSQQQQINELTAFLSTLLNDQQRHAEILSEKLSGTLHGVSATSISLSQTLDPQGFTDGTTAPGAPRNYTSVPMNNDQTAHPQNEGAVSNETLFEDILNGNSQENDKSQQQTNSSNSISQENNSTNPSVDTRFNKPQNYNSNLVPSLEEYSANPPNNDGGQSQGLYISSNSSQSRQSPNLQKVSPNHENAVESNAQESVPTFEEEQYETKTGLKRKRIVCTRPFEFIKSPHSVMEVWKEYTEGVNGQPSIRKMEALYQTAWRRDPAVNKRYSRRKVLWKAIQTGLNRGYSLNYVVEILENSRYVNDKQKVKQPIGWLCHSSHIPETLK
# Experiment: PBM E-score (8-mer binding enrichment) (E-score (-0.5 to 0.5)); higher = stronger / more preferred TF binding; most listed sequences are background and not binding sites
# Settings: protein concentration: 200 nM; construct: GST-full length
# Outline: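 Yeast transcription factors carrying a GST tag, as full-length proteins or DNA-binding domains, were produced by PURExpress in vitro transcription/translation. About 100-200 nM protein was applied to universal all-10-mer Agilent arrays, double-stranded by primer extension on fresh or once-stripped slides. Bound protein was detected with fluorescent anti-GST, and scans were normalised with masliner. The Universal PBM Analysis Suite gave each ungapped eight-base word, pooled with its reverse complement, an E-score, a modified Wilcoxon-Mann-Whitney statistic.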
row,Sequence,PBM E-score
1,GCAATGCC,-0.0403
2,CCACGTAA,-0.0608
3,AATTAGAT,0.192
4,GCATCGCA,-0.322
5,GCCGAAAC,0.0415
6,AACGATAC,-0.00372
7,GATAGTCC,0.122
8,CCACTCCG,-0.144
9,CTTAGTCA,0.0007
10,AAGCTACG,-0.14
11,GTATTGGA,0.00477
12,AAGGTTGG,-0.102
13,GATTGAGA,0.025
14,CAGTAATC,-0.0275
15,AGACAAAG,0.364
16,AACTTTAT,0.0939
17,TAATAACA,0.216
18,GCCATGTA,-0.012
19,ACGATCCA,-0.0547
20,CCTCTAAC,0.0154
21,GGCTAAAA,0.0789
22,ACTGACAT,0.249
23,ATAGATCC,-0.0574
24,AGACGAGA,-0.0568
25,CGAATGAG,-0.0247

row,Sequence,PBM E-score
1,ATTTTACG,0.199
2,GTTCATAA,-0.0351
3,AATCTACC,0.0273
4,GTCTGTTA,0.161
5,GACACCTA,0.111
6,CCATATAC,0.153
7,CAGCAGTC,-0.149
8,AGGGCGGC,-0.196
9,ACACTTCT,0.0937
10,ATTGATAG,0.156
11,CTATGAAA,0.0195
12,ATATAACA,0.197
13,ACTGTCCG,0.183
14,TACAACAA,0.203
15,TGCGTACA,0.102
16,CGCTGAGA,0.0389
17,AACCTTAC,0.106
18,CTGTGGTA,0.0657
19,GCCAGAAA,0.0601
20,ACTTTGGA,0.138
21,CTGGGAAC,-0.0254
22,GCATCCAC,-0.0364
23,GGTTTAAC,0.00524
24,ACTCTCTC,-0.185
25,ATGCGTTG,-0.0136

row,Sequence,PBM E-score
1,AGTATACA,0.169
2,ACTGTTTG,0.0487
3,GACTTAAA,0.145
4,CAGAGCAG,-0.113
5,ACAAGAAT,0.223
6,AATTGTAC,0.365
7,ACGGCCCG,-0.181
8,CAACATAC,0.0974
9,GAGTGCGA,0.00502
10,CTTAAGCC,-0.0426
11,ACTTCACA,0.0485
12,CCCAACGC,0.0471
13,CCAACTAC,-0.0374
14,TATTAATA,-0.134
15,CCATCGAG,0.0161
16,CCGCTCAG,-0.268
17,ACGGACAC,0.344
18,CTCCTCGA,-0.186
19,CTTCGCGC,0.0725
20,CAACACGG,-0.13
21,CAGCCTAA,-0.0854
22,AAGGGACT,0.0205
23,GACACAGA,0.204
24,AAGATTCA,0.14
25,AAGACTAT,-0.0507

row,Sequence,PBM E-score
1,AATGGTTA,-0.0777
2,CCACGCCG,-0.112
3,AAGGCAGA,-0.14
4,CTCTGGTC,-0.201
5,GTCTCCAC,-0.115
6,CCCTATAA,-0.134
7,ACGTACTC,0.00233
8,CGATCCTC,-0.0924
9,TCCATAAA,0.00441
10,AGATAATC,0.094
11,GATCCAGA,-0.00709
12,CAGCGATA,-0.125
13,CAGGTTCA,-0.149
14,CTGGACTA,-0.128
15,CGTGTGAA,0.125
16,GCGATCTA,0.0372
17,CCAAGGAG,-0.129
18,ATCGAGAC,0.031
19,AGCCATAT,0.00713
20,ATCGTGCA,0.125
21,AACTATTA,0.0997
22,CTGGTCCC,-0.218
23,CCAACGAG,-0.068
24,ACTTAATG,0.197
25,GTCGCTAA,0.133

row,Sequence,PBM E-score
1,ATATTATG,0.269
2,ATATGCAA,0.143
3,CATCCTCG,-0.144
4,AGCGTTCC,-0.0981
5,CTATTGAG,0.0896
6,GATTAATC,0.0343
7,CTACTCTA,0.125
8,ATTTGGTA,0.225
9,CGATTAAA,0.0941
10,GATCTGAC,0.0382
11,CCCGGGTC,-0.203
12,AGCGCGGC,-0.0748
13,CGGGTAAA,0.0524
14,AAGAAATG,0.185
15,CCTCACCA,-0.243
16,AGGGCTCG,-0.415
17,ACCGAGGG,-0.34
18,ATTTTTGA,0.0575
19,AAGTGGTA,0.0573
20,ACAAGCGC,0.105
21,CTGCCACC,-0.301
22,ACCGAATC,-0.0187
23,ACGCATCT,0.0951
24,GCATGTCC,0.459
25,CAGTCGCA,-0.207

row,Sequence,PBM E-score
1,CATGATAA,0.0379
2,CGGCTCAG,-0.0278
3,TGTAGACA,0.261
4,ACGCATAG,-0.171
5,ATCGTGTA,-0.0605
6,CTCGGAAC,0.265
7,CTGTTCTA,0.0719
8,CGGGGCCA,-0.157
9,CACACCTA,0.0593
10,ACGCATAT,0.157
11,CAATTATG,0.182
12,ACTGGCAT,-0.17
13,CCTCGTTC,-0.202
14,TATTACGA,0.125
15,AATCCCAA,-0.0751
16,ATCAAACA,0.116
17,ATATTGAT,0.131
18,TTTCGAAA,0.236
19,AGGTACTG,-0.0599
20,GGGACCAC,-0.255
21,AAATTAAC,0.0769
22,AGCCGATG,0.0723
23,ACGGAGAT,-0.151
24,ATTAGACA,0.295
25,CCCAGCGC,-0.0762

row,Sequence,PBM E-score
1,AATTGCAA,0.119
2,CATGCGCC,0.122
3,AACAGGTT,-0.0971
4,CAATCAGC,-0.122
5,AGTTCATG,0.146
6,AATTGATG,0.23
7,ATGACGTC,0.118
8,AAGGTCTC,-0.0547
9,AACCCCTG,-0.299
10,TTCGCAAA,0.167
11,ATCTAAAC,-0.019
12,GCAACGAA,0.106
13,AGGAGAAT,-0.0793
14,AGTTGATC,-0.143
15,ACTGCCAA,0.0843
16,AGAATATC,0.0546
17,ACGAACGA,0.0578
18,AGACATGG,0.221
19,GTTTGTGA,0.0517
20,AGACGTGA,0.207
21,AACTGAGC,-0.209
22,CCGATAGG,0.0659
